# Measured values: the supplement of paper PMC8728848
# The list shows a part of the results.
# B1: CvGal2 (Crassostrea virginica) (protein)
# chain: MGSSHHHHHHSSGLVPRGSHMRIREAGKRKDTTKVYQIPDGLFPGQQVMLRGRVPWGSKSFSINFSATPRMGEGDILFHLNPRPSEGVCIRNALLNGSWGAEEKWQPYFPFDDGRSFSVKIEVTNDAFRTFVNGRPFVDFLHRTDFRAGKYLTLREGAEYYDVIFQSKPNIPLTTAIHNGMRIGKTIRIRGMCTAQDGFAINFNDNRNNIYFHFNARPAQRTVVRNSYFGSWGNEETAISKEFPFYPFLYFYASFVCMEDKFAVYVNDEHFIDFAHRGNPNNISVLQIKGSVNVLDTECLEPMGEDAMTEVDSGLENGDLFVLNGLMTERGKTFAVNFLNGFTENDDIALHFNPRKSTGEVVLNSRYGGAWQSEEKVALPGVFWSNRPLQVKVETKRNKFKIYVNGVDLAKYKIRGNVEDVHAVQVKGDVFLLETLLLKRLMKPVWERLTGGIRPGTWVTLQGTPKKNWQQFVVNFALDDTLDGDIAFHFNVRRGARQVVRNHRQSGAWGREETVTPFFAFDSEATFEIVFFVKEEKFLIYFNGKLFFEFVHRVPVERITHIYMDGDCNFYEPEVVI
# Key:
# Test in all cases: glycan array binding signal (z-score within array); higher = stronger binding
# Details in all cases: glycan notation: IUPAC condensed, linker removed
# [1] = target: Neu5Ac(a2-6)GlcNAc(b1-4)GlcNAc
# Procedure, shortened: (§1)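 Glycan array binding is given as a within-array Z-score, which can be read as non-binding when negative. The arrays, 3228 of them, came from the Consortium for Functional Glycomics database and were retained only where the protein sequence was available. Z-scores were averaged across arrays of the same protein sequence at different concentrations or buffers and across linkers.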
# [2] = target: Neu5Ac(a2-6)GlcNAc(b1-4)GlcNAc(b1-4)GlcNAc
# Procedure, shortened: as §1
# [3] = target: Neu5Ac(a2-8)Neu5Ac
# Procedure, shortened: as §1
# [4] = target: Neu5Ac(a2-8)Neu5Ac(a2-3)Gal(b1-3)GalNAc(b1-4)[Neu5Ac(a2-3)]Gal(b1-4)Glc
# Procedure, shortened: as §1
# [5] = target: Neu5Ac(a2-8)Neu5Ac(a2-3)Gal(b1-3)GalNAc(b1-4)[Neu5Ac(a2-8)Neu5Ac(a2-3)]Gal(b1-4)Glc
# Procedure, shortened: as §1
# [6] = target: Neu5Ac(a2-8)Neu5Ac(a2-3)Gal(b1-4)Glc
# Procedure, shortened: as §1
# [7] = target: Neu5Ac(a2-8)Neu5Ac(a2-3)Gal(b1-4)GlcNAc
# Procedure, shortened: as §1
# [8] = target: Neu5Ac(a2-8)Neu5Ac(a2-3)[Gal(b1-3)GalNAc(b1-4)]Gal(b1-4)Glc
# Procedure, shortened: as §1
# [9] = target: Neu5Ac(a2-8)Neu5Ac(a2-3)[GalNAc(b1-4)]Gal(b1-4)Glc
# Procedure, shortened: as §1
# [10] = target: Neu5Ac(a2-8)Neu5Ac(a2-8)Neu5Ac
# Procedure, shortened: as §1
# [11] = target: Neu5Ac(a2-8)Neu5Ac(a2-8)Neu5Ac(a2-3)Gal(b1-4)Glc
# Procedure, shortened: as §1
# [12] = target: Neu5Ac(a2-8)Neu5Ac(a2-8)Neu5Ac(a2-3)[Gal(b1-3)GalNAc(b1-4)]Gal(b1-4)Glc
# Procedure, shortened: as §1
# [13] = target: Neu5Ac(a2-8)Neu5Ac(a2-8)Neu5Ac(a2-3)[GalNAc(b1-4)]Gal(b1-4)Glc
# Procedure, shortened: as §1
# [14] = target: Neu5Ac(a2-8)Neu5Ac(a2-8)Neu5Ac(a2-8)Neu5Ac(a2-3)[GalNAc(b1-4)]Gal(b1-4)Glc
# Procedure, shortened: as §1
# [15] = target: Neu5Ac(a2-8)Neu5Gc(a2-3)Gal(b1-4)GlcNAc
# Procedure, shortened: as §1
# [16] = target: Neu5Ac(b2-6)Gal(b1-4)GlcNAc
# Procedure, shortened: as §1
# [17] = target: Neu5Ac(b2-6)GalNAc
# Procedure, shortened: as §1
# [18] = target: Neu5Ac9Ac(a2-3)Gal(b1-3)GlcNAc
# Procedure, shortened: as §1
# [19] = target: Neu5Ac9Ac(a2-3)Gal(b1-4)GlcNAc
# Procedure, shortened: as §1
# [20] = target: Neu5Ac9Ac(a2-6)Gal(b1-4)GlcNAc
# Procedure, shortened: as §1
# [21] = target: Neu5Gc(a2-3)Gal(b1-3)GlcNAc
# Procedure, shortened: as §1
# [22] = target: Neu5Gc(a2-3)Gal(b1-3)[Fuc(a1-4)]GlcNAc
# Procedure, shortened: as §1
# [23] = target: Neu5Gc(a2-3)Gal(b1-4)Glc
# Procedure, shortened: as §1
# [24] = target: Neu5Gc(a2-3)Gal(b1-4)GlcNAc
# Procedure, shortened: as §1
# [25] = target: Neu5Gc(a2-3)Gal(b1-4)GlcNAc(b1-3)Gal(b1-4)GlcNAc(b1-2)Man(a1-3)[Neu5Gc(a2-3)Gal(b1-4)GlcNAc(b1-3)Gal(b1-4)GlcNAc(b1-2)Man(a1-6)]Man(b1-4)GlcNAc(b1-4)GlcNAc
# Procedure, shortened: as §1
# [26] = target: Neu5Gc(a2-3)Gal(b1-4)[Fuc(a1-3)]GlcNAc
# Procedure, shortened: as §1
# [27] = target: Neu5Gc(a2-6)Gal(b1-4)GlcNAc
# Procedure, shortened: as §1
# [28] = target: Neu5Gc(a2-6)GalNAc
# Procedure, shortened: as §1
# [29] = target: Neu5Gc(a2-8)Neu5Ac(a2-3)Gal(b1-4)GlcNAc
# Procedure, shortened: as §1
# [30] = target: Neu5Gc(a2-8)Neu5Gc(a2-3)Gal(b1-4)GlcNAc
# Procedure, shortened: as §1
binder,measurement,setting,value
B1,glycan array binding signal (z-score),[1],-0.336
same,glycan array binding signal (z-score),[2],-0.335
same,glycan array binding signal (z-score),[3],-0.332
same,glycan array binding signal (z-score),[4],-0.329
same,glycan array binding signal (z-score),[5],-0.298
same,glycan array binding signal (z-score),[6],-0.336
same,glycan array binding signal (z-score),[7],-0.335
same,glycan array binding signal (z-score),[8],-0.316
same,glycan array binding signal (z-score),[9],-0.346
same,glycan array binding signal (z-score),[10],-0.335
same,glycan array binding signal (z-score),[11],-0.336
same,glycan array binding signal (z-score),[12],-0.325
same,glycan array binding signal (z-score),[13],-0.338
same,glycan array binding signal (z-score),[14],-0.338
same,glycan array binding signal (z-score),[15],0.001
same,glycan array binding signal (z-score),[16],-0.332
same,glycan array binding signal (z-score),[17],-0.335
same,glycan array binding signal (z-score),[18],-0.322
same,glycan array binding signal (z-score),[19],-0.252
same,glycan array binding signal (z-score),[20],-0.321
same,glycan array binding signal (z-score),[21],-0.336
same,glycan array binding signal (z-score),[22],-0.338
same,glycan array binding signal (z-score),[23],-0.314
same,glycan array binding signal (z-score),[24],-0.332
same,glycan array binding signal (z-score),[25],-0.319
same,glycan array binding signal (z-score),[26],-0.299
same,glycan array binding signal (z-score),[27],-0.338
same,glycan array binding signal (z-score),[28],-0.336
same,glycan array binding signal (z-score),[29],-0.329
same,glycan array binding signal (z-score),[30],-0.341
